Experimental data reported in the supplement of paper PMC3334620.
In all, about 33,000 sequences were measured (“E-score (-0.5 to 0.5)”: median about -0.054, highest 2% from about 0.39 on). The list shows a part of the results.

biological target: Ylr278c (UniProt Q05854); assay: PBM E-score (8-mer binding enrichment) (E-score (-0.5 to 0.5)); higher = stronger / more preferred TF binding; most listed sequences are background and not binding sites; conditions: protein concentration: 200 nM; construct: GST-DNA-binding domain
How it was run: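 PURExpress in vitro transcription/translation supplied GST-tagged yeast transcription factors, either full-length or DNA-binding domain. Applied at about 100-200 nM to universal all-10-mer Agilent arrays double-stranded by primer extension, the bound protein was detected with fluorescent anti-GST. E-scores, modified Wilcoxon-Mann-Whitney statistics, were given by the Universal PBM Analysis Suite to ungapped eight-base words pooled with their reverse complements after masliner normalisation.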

| Sequence | PBM E-score |
| --- | --- |
| GCTTTGAA | -0.211 |
| TGATCCCA | -0.12 |
| AAAAGCCA | 0.0629 |
| CCCGCAGG | 0.207 |
| TAGTACAA | -0.125 |
| CCCGTGAG | 0.112 |
| CACTTCTA | -0.111 |
| CTGATCAC | -0.133 |
| AAGAACGA | 0.065 |
| CATCGGGG | 0.314 |
| AAAGGCTG | -0.205 |
| CGCACTTA | 0.135 |
| TCGGTACA | 0.103 |
| ACGTCAGG | -0.236 |
| AGGTCCTA | -0.146 |
| GCTTGGTA | -0.261 |
| CATGGTAC | -0.00515 |
| GGATGGGA | 0.0151 |
| GTGCTGGA | -0.205 |
| CAGGCACA | -0.121 |
| CTAGATGA | -0.241 |
| AGAGGTGC | 0.0557 |
| GAGGTTTA | 0.0695 |
| GTAATAAC | -0.14 |
| ACGCTAAC | -0.188 |

| Sequence | PBM E-score |
| --- | --- |
| GCGACCGC | 0.0978 |
| ATGCCGGC | 0.372 |
| GCAAGATA | -0.196 |
| CCTGTGGA | -0.344 |
| GTAGCAGA | -0.132 |
| CCCCCAAC | -0.256 |
| ACCCCGCG | 0.347 |
| AAGGAAGC | -0.162 |
| TAGAACCA | -0.14 |
| GACGCCAC | -0.0895 |
| ATCGGACC | 0.412 |
| AAGCGTTA | -0.16 |
| ATTTAGAG | -0.0895 |
| GCCCTTCC | -0.0379 |
| CAATTTGC | -0.159 |
| ACCTCAGT | -0.183 |
| AGTGAGTC | -0.0789 |
| CCTCAAAG | -0.271 |
| AGCAGTGA | 0.161 |
| AGGGTCGA | -0.00353 |
| AACTGTCT | -0.119 |
| CCGTTTAG | 0.12 |
| ATGGTGGA | -0.244 |
| GCTGGTCA | -0.281 |
| ATATGCAG | -0.177 |

| Sequence | PBM E-score |
| --- | --- |
| ACGGTGAC | -0.0149 |
| ATCGACAC | -0.273 |
| CTTCACAA | -0.204 |
| ACAATGAG | -0.082 |
| CCACGCTC | -0.139 |
| GCGAAGTA | 0.0791 |
| ACCGGGGC | 0.367 |
| CACGGTGG | -0.0685 |
| AAGCGGAC | 0.335 |
| ATTCGCTG | -0.00731 |
| AACCGCTT | -0.0982 |
| ATCGGGAG | 0.192 |
| GACCGCGC | 0.171 |
| CGAGAAAC | 0.107 |
| ACCAATCA | -0.0153 |
| GTCTTTCA | -0.183 |
| ACGTTTGC | -0.0764 |
| ACAGACAT | -0.116 |
| TACCATGA | -0.231 |
| AGGGCCCG | 0.152 |
| CTGATAAG | -0.165 |
| CAATTAGC | 0.0532 |
| CCGTCATA | 0.206 |
| ACACTTTA | -0.0751 |
| ACGTCGAT | -0.117 |

| Sequence | PBM E-score |
| --- | --- |
| ACTAACTC | -0.0256 |
| ACTTGTCT | -0.108 |
| AGACGGGA | 0.0938 |
| ATTCTCCA | -0.052 |
| CCCCCACA | -0.361 |
| CCACGCCC | 0.0633 |
| CTGCCGAC | 0.15 |
| ACATAAAA | -0.214 |
| AAATCAGA | -0.1 |
| CCCCGGAA | 0.406 |
| CAACCTGG | -0.0289 |
| ATCTTTCG | 0.00101 |
| AACAGTGG | -0.0967 |
| CCTACCCC | 0.249 |
| GATAGTAC | -0.131 |
| CGTCACTC | 0.13 |
| TCACGCAA | 0.0644 |
| AGGGGCTA | -0.0775 |
| CGTGCCAA | -0.0693 |
| AGTGGTGG | -0.158 |
| GAGCTGTA | -0.156 |
| CCCTGTTA | -0.0341 |
| GGCGGCAC | 0.191 |
| CATGTGCG | 0.0683 |
| AAATAAAT | 0.0127 |

| Sequence | PBM E-score |
| --- | --- |
| TATAGATA | -0.159 |
| CTGGGTCA | -0.205 |
| ATTCAACG | 0.0851 |
| ATTGTAAA | -0.0131 |
| ACCTATAC | -0.275 |
| ATGGACTC | -0.0683 |
| GGCCTGCA | -0.0835 |
| ATACTTAG | -0.186 |
| AGTTTTCG | 0.0339 |
| GGGGCAAC | -0.169 |
| CCCTCATA | -0.16 |
| CTAAACGC | 0.0688 |
| GCATGGGC | -0.219 |
| ATTTCTGA | -0.257 |
| TACCACCA | 0.0608 |
| AAGCCCCC | -0.0952 |
| AGACTAAC | -0.0964 |
| ACCGTAAC | -0.0794 |
| AACCAGAT | -0.0169 |
| CGGACCAA | 0.331 |
| GGGAGTTA | 0.195 |
| CGGGTCTC | 0.198 |
| TGCTCGAA | -0.161 |
| CCCTAAAC | -0.0595 |
| CGCGAGCA | 0.00146 |

| Sequence | PBM E-score |
| --- | --- |
| ATAGAATG | -0.167 |
| GTTTCTGA | 0.0572 |
| AGTCTACA | -0.154 |
| CAACTGTG | -0.155 |
| AGGGGGCG | -0.0422 |
| ATACTCAA | 0.0145 |
| CTCCAACA | -0.109 |
| CATACGAC | -0.137 |
| CATTAGGC | -0.211 |
| AGTTCAAC | 0.0985 |
| CATGCCGA | 0.217 |
| CTCTATAC | -0.129 |
| AGCGCTAA | 0.143 |
| AAGTTAAG | -0.0926 |
| ATTAGTGG | 0.0575 |
| ACCGTTTA | 0.0458 |
| CAATCCCC | 0.16 |
| AGACCTAA | -0.175 |
| TCTAGAAA | -0.184 |
| TAATACGA | -0.145 |
| GGACTCCC | 0.0565 |
| AAATACAG | -0.0403 |
| GATATGAC | 0.00138 |
| AATGTGGT | -0.0805 |
| CGGACTCA | 0.384 |

| Sequence | PBM E-score |
| --- | --- |
| TAACAAGA | -0.0521 |
| AATAACCC | 0.199 |
| ATGCAGTG | -0.131 |
| AATTCGCT | 0.129 |
| AGCGTGAG | -0.203 |
| ACCTTCCA | -0.165 |
| AGGGCTTA | -0.229 |
| ACGACCTA | -0.0853 |
| AACGCGAT | 0.091 |
| ATTAGAAT | -0.0713 |
| CGCCAGAG | -0.122 |
| CTGCAAAA | -0.0962 |
| ACGCATTG | -0.221 |
| ATTACAGC | -0.167 |
| AAAAGATG | -0.178 |
| CAGAACCA | -0.314 |
| CCGAGATC | 0.3 |
| GATCGTAA | -0.273 |
| CCCAACTC | 0.0932 |
| CAAGGTTC | -0.00539 |
| AAAACCTT | -0.012 |
| GACAAGAA | -0.00345 |
